According to the supplement of paper PMC3334620:
The full ranking holds about 33,000 sequences; the median of “E-score (-0.5 to 0.5)” is about -0.016, and the highest 2% start at about 0.31. The list shows a part of the results.

What follows are sequences tested against Cst6 (UniProt P40535) (assay: PBM E-score (8-mer binding enrichment) (E-score (-0.5 to 0.5)); higher = stronger / more preferred TF binding; most listed sequences are background and not binding sites). Details: protein concentration: 200 nM; construct: GST-DNA-binding domain.
Procedure, shortened: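 Using PURExpress in vitro transcription/translation, GST-tagged yeast transcription factors were made in full-length or DNA-binding-domain form. These were applied at about 100-200 nM to double-stranded universal all-10-mer Agilent arrays, and bound protein was detected with fluorescent anti-GST. Scans were normalised with masliner before the Universal PBM Analysis Suite assigned E-scores to ungapped eight-base words pooled with their reverse complements.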

Sequence | PBM E-score
TCCCGCAA | -0.0348
CGTGACGA | 0.386
ACACTACA | 0.168
ACGGAGGC | -0.129
GGAGTTGA | -0.0935
GATCACGC | 0.263
CGAGTCGC | -0.268
AAGCGCAT | -0.132
ACCAATTA | 0.182
GACAACAC | 0.114
TATAGTAA | 0.161
CCCCCCTC | -0.431
TAGTACGA | 0.0609
TCAGGACA | 0.0644
CGCGTCTC | -0.0186
CATCGCAC | -0.0215
GACCGTTA | -0.109
GCGGTAGA | -0.173
TATACAGA | 0.176
CGCATACA | 0.129
ACTCTTAT | 0.0844
GGCGTTCA | -0.0971
ACCTAAAA | 0.133
ACCCACTG | -0.0695
CAGTACCC | -0.136

Sequence | PBM E-score
CAAGACGG | -0.0797
ACCGAATA | 0.0754
GTCCCGGA | -0.179
ACCATCGT | -0.0803
CAGATGGG | -0.141
CACCATGC | -0.133
AGCACAAA | 0.174
GAGTTTTA | 0.122
CCTAGTAG | -0.248
ATTGATAA | 0.179
CCCGACGA | -0.173
CCTGGTAA | -0.0632
CGGCGTTC | 0.115
GCGGAATA | 0.0593
GCATGAAC | 0.101
AGGGGAGA | -0.369
AGTGTACA | -0.0207
TTTTAAAA | 0.187
CGCAGTCC | -0.15
GAGGCTTA | -0.0817
CTTCCAAC | -0.0988
GTGGCTTA | -0.00805
CGGTAGGC | -0.137
CGTAGCAA | 0.0803
GAGCTTTA | -0.0811

Sequence | PBM E-score
GCGGGACC | -0.345
TAGACGGA | -0.00256
AAGCTGCT | -0.0988
ACACGTAG | 0.0917
CCTCGAGA | -6e-05
ACCTCACT | 0.164
ACACATAA | 0.237
CCCCTTAA | -0.212
TCTCGGCA | -0.0951
AACGGGAG | -0.0754
TCACGCGA | 0.0214
GCACGCAC | -0.159
CTACTGGA | -0.194
TCCGTGAA | -0.0755
ACGATCGC | 0.0847
AGCGAACA | 0.0447
AGGGACAA | -0.0311
GTAAAGGA | 0.0655
CACTTGAG | -0.0276
ACCCCCTA | -0.406
AGATATCC | 0.045
AAATGATT | 0.294
ATGTCAGA | 0.221
AGGTCTCG | -0.221
GTTTCGAA | 0.0856

Sequence | PBM E-score
AGCCCCCA | -0.351
TCCTTGCA | -0.206
GTACGAAC | 0.216
GCAGAACA | 0.0461
GACCAGAA | -0.119
ACCAACCG | -0.0437
GCGAGGCC | -0.153
GCCGGGCC | -0.287
ACGAATAA | 0.18
GGGCCTTA | -0.208
ATAACGTA | 0.398
ATGCTGTG | 0.0518
CACGAACA | 0.182
ATGTTTGA | -0.00837
TCCTGGCA | -0.183
CGCCGGGA | -0.22
GCGCTCCC | -0.226
CATGTATA | 0.0241
GCGAATCA | 0.139
GCTTAGAC | -0.195
ATGAGTGG | -0.0978
CCAAGGCC | -0.19
ACGCGCAT | 0.0851
CAATAAAG | 0.243
CCCCTGGA | -0.273

Sequence | PBM E-score
TAAGAGCA | -0.032
CCGAGGAG | -0.221
CGGAGTAG | -0.177
AGATAGCT | -0.195
GACAATTA | 0.157
ACGAGGCG | 0.237
ATACTCGG | 0.0698
AAGAATAC | 0.205
AGTGTTTC | 0.0641
TGCTCACA | 0.0805
AGTTGAAC | -0.0385
TGGATGAA | 0.0443
ACTTACGC | 0.214
CGCCCCCG | -0.294
GACTCTGA | -0.112
GTCGGGGA | -0.148
AAGGCCCC | -0.217
GCAGGCGC | -0.0994
ATTCGAAC | 0.0877
GCGCACGC | -0.136
AGGGAGCC | -0.326
ACAATCAC | 0.122
CTGGCTAA | -0.16
CAATGGTA | 0.0178
ACTGTGTC | -0.079

Sequence | PBM E-score
ACGAACAA | 0.286
AATTAGGG | -0.244
AGTGTAAC | 0.00704
GAAGAATA | 0.0433
CACGCACA | 0.0345
GCCACACA | -0.102
CGGGGACG | -0.208
ACGCGAAA | 0.123
CTCGATCA | -0.0541
AGTTGATA | 0.103
AGTCACTC | -0.033
GACTCACA | -0.0741
CTGAACAG | -0.0826
CTGGAACA | 0.0416
GCGCTGCA | -0.0118
GTCCCGCA | -0.236
CGCGCTGC | -0.0228
CCCGCTGC | -0.0285
ACAGGGCA | -0.00397
GTCTTATA | 0.0319
GGTATTCA | 0.161
CACCTGTC | -0.0696
AGCACTCC | -0.112
CAGATAAG | -0.0725
CGGTCACG | -0.00354

Sequence | PBM E-score
GCCGGCTA | -0.169
AGCAAACC | 0.00986
ACGGTCCC | -0.413
AGAGTCGA | -0.115
CTGACGAA | 0.29
ATGGGATC | -0.0128
CCCCACCA | -0.0473
GCACTGCA | -0.0994
GACGCTAA | -0.0631
ATCTAGTC | 0.0277
AAAACTGT | 0.116
AAACTTAC | 0.079
AGCTAAAC | -0.0554
CGTCCTCC | -0.219
CGTTATGA | 0.0852
CGCTCATC | 0.0975
GCGGAAGA | -0.00298
CTTGGTCA | -0.07
GCACGCTA | -0.14
AGGGCTAC | -0.215
AGCAGCTC | -0.28
ATGGGTCC | -0.242
